# Test results taken from publication PMC12136788.
# The list shows a part of the results.
# T1: UNK ZnF1-6 (called full-length) (human, UniProt Q9C0B0 30-357)
# T1 sequence: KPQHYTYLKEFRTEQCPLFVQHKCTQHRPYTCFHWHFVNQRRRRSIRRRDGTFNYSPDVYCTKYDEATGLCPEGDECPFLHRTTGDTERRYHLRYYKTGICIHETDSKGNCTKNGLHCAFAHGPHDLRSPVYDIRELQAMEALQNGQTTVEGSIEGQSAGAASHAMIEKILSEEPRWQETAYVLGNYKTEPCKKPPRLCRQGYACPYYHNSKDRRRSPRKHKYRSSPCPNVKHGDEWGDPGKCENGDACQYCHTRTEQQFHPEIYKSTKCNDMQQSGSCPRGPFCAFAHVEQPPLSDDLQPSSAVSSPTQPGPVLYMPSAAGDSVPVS
# B1: chr15:89832191:89832292:-|3pUTR|ENSG00000157823|msi1|total|mutant (ssRNA)
# RNA: GGGAGUUCUACAGUCCGACGAUCCCCGGCCGCUGGAACCACAGGCACGCAACCACCACUCCUGGCCCGUUUUAUUUUUUCCGCCGAAUAAGGUCUCACUAUGUUGCACAGGCUGGUCUCUAACUCCUUACCUCAAGCCAUCCUCAACAGAGGAUUGAGCAUCA
# B2: chr1:86742159:86742388:+|CDS|ENSG00000097033|unk|total|mutant (ssRNA)
# RNA: GGGAGUUCUACAGUCCGACGAUCUGUACCAUCAGUUUUACCAAAUGCGAUUGGUUCUUCUGCCAUGGCUUCAACAAGUGGCCCCGUAAUCACCUCUCCUUCCAACCUCAGUGACCUUAAGGAGUGCCGUGGCAGCAGAAAGGCCAACAGAGGAUUGAGCAUCA
# B3: chr8:143040838:143043334:-|three_prime_utr|ENSG00000291309|control|control|control (ssRNA)
# RNA: GGGAGUUCUACAGUCCGACGAUCACCACUUUUUUCAGAGCUGGGCCUCAGAGACCAGGCCCCACCACUGGCUGCUUGGGACCUAGGGUCAUAGAGAAACCGUGGCCCAGGGCGGGAGUCCCCAGCUCCAUCCAGCUUGCCACUCAACAGAGGAUUGAGCAUCA
# B4: chr15:41517175:41517691:-|three_prime_utr|ENSG00000103932|control|control|control (ssRNA)
# RNA: GGGAGUUCUACAGUCCGACGAUCGUCAGCACUACCUCCAGAGACUGACUUCAACAGUGCUCCAAAAUGGGGUAUCAGAGACCUAGGAUAGUUGAUAUAGAUGGAAAGAUGGGUACGUUGUCCUGUAUCCAGCCUUUCAACAGACAACAGAGGAUUGAGCAUCA
# B5: chr22:46256563:46263322:-|CDS|ENSG00000130943|control|control|control (ssRNA)
# RNA: GGGAGUUCUACAGUCCGACGAUCAAUUCGGUUUUACUUGUCGAACCCAGAAGACUUCAUUCCCUUUCAUGCAGUUUCUCAGGUAGAUCACAUUAUGAGGAUAAUUUUGGGUUUCCUGUUAUUUCUGACAAUUUUGAAGACCCUCAACAGAGGAUUGAGCAUCA
# B6: ENSG00000107863:be:win_1001|CDS|ENSG00000107863|bound_else_gene|NA|bound_elsewhere_windowed (ssRNA)
# RNA: GGGAGUUCUACAGUCCGACGAUCCAGGCUCCAGAUCACUGGAACCUUCUGGAAUUUUACUUAAGUCUGGAAAUUACAGUGGACAUUCUGAUGGAAUCUCAAGCAGCAGAUCUCAAGCUGUGGAGGCUCCCUCUGUAUCUGUUACAACAGAGGAUUGAGCAUCA
# B7: chr11:20121310:20121411:+|3pUTR|ENSG00000166833|msi1|total|mutant (ssRNA)
# RNA: GGGAGUUCUACAGUCCGACGAUCAUUGUAACACCGAAAUUGUAAAUAAUUGAUUAAAGUGCUGCAUUUUGAUGAAUUUUUUCCCGCCAUUUUUAAAGAGAAAACCCGGAAUUGAGUAUUUUGUGUACGGUAUGUUUCCAUCCUCAACAGAGGAUUGAGCAUCA
# B8: chrX:65741840:65741941:+|3pUTR|ENSG00000147065|msi1|total|mutant (ssRNA)
# RNA: GGGAGUUCUACAGUCCGACGAUCAAAUUGUUUUUGGAGGGGUUUAUGCUCAAUCCAUGUUCUAUUUCAGUGCCAAUAAAAUUCCGGAAGACUUCACAGUGACUCAAUCGUUCUUUGUGGUAUGAGUGGGCCGCUGUAAGAUAUCAACAGAGGAUUGAGCAUCA
# B9: chr3:170361105:170361226:+|CDS|ENSG00000136603|unk|FALSE|bound_elsewhere (ssRNA)
# RNA: GGGAGUUCUACAGUCCGACGAUCAAGCUCAUUGGCCCAGUUAAAGGAAACUGGCAGUGCCUUUGAAGUGGAGCAUGAAUGCCUAGGCAAAUGUCAGGGUUUAUUUGCACCCCAGUUUUAUGUUCAGCCUGAUGCUCCGUGUAUCAACAGAGGAUUGAGCAUCA
# B10: chrX:52062232:52062664:-|CDS|ENSG00000187243|control|control|control (ssRNA)
# RNA: GGGAGUUCUACAGUCCGACGAUCGGCCACGUGGAGAGCUGGCGUCAGCAGUGGCACCAAUGGAGGGGCCAGCACCAGCGUCCUAGAUGGCCCCAGCACCAGCUCCACCAUCCGGACCAGAAAUGCUGCCAGAGCUGGCGCCAGCAACAGAGGAUUGAGCAUCA
# B11: chr22:39520512:39520623:+|5pUTR|ENSG00000128272|unk|FALSE|bound_elsewhere (ssRNA)
# RNA: GGGAGUUCUACAGUCCGACGAUCUCUAUAAAGGGCCGGCGGGCGGCCACGGCAGCCAUUUCUACUUUGCCCGCCCACAGAUGUAGUUUUCUCUGCGCGUGUGCGUUUUCCCUCCUCCCCGCCCUCAGGGUCCACGGCCACCAUCAACAGAGGAUUGAGCAUCA
# B12: ENSG00000070961:be:win_3351|CDS|ENSG00000070961|bound_else_gene|NA|bound_elsewhere_windowed (ssRNA)
# RNA: GGGAGUUCUACAGUCCGACGAUCGAUUCGAGUGGUGAAUGCAUUUCGUAGUUCUUUAUAUGAAGGGUUAGAAAAACCGGAAUCAAGAAGUUCGAUUCACAACUUUAUGACACAUCCUGAGUUUAGGAUAGAAGAUUCAGAGCCCAACAGAGGAUUGAGCAUCA
# B13: ENSG00000070961:be:win_3751|3pUTR|ENSG00000070961|bound_else_gene|NA|bound_elsewhere_windowed (ssRNA)
# RNA: GGGAGUUCUACAGUCCGACGAUCUAUUCUUGUCUUUGGACUUCAACAGAAGACACACUUGUACGAAUGUAGAUUUAUUUUUUUAAAAAAAAAAAAGCAAAGCUUUCUGCCAGACUGAGGGUGCUUUUUGGGGGGUGGGAGAAACAACAGAGGAUUGAGCAUCA
# B14: ENSG00000136451:be:win_1251|CDS|ENSG00000136451|bound_else_gene|NA|bound_elsewhere_windowed (ssRNA)
# RNA: GGGAGUUCUACAGUCCGACGAUCAGUGGCAGCUGCAAUGAGCAUGAGAAGUCCAGUAAAUGUUUCAAGUGCAGUUAACAUAACCAGCCCAAUGAACAUAGGGCAUCCUGUAACUAUAACCAGUCCAUUAUCCAUGACCUCUCCCAACAGAGGAUUGAGCAUCA
# Biological target: T1, UNK ZnF1-6 (called full-length)
# Assay: nsRBNS (natural sequence RNA bind-n-seq); RBNS binding buffer (assumed for nsRBNS): 25 mM Tris pH 7.5, 150 mM KCl, 3 mM MgCl2, 0.01% Triton X-100, 500 ug/ml BSA, 20 U/ml SUPERase-In, 4 C; UNK is unkempt and MSI1 is Musashi-1; names of the RNAs are library labels; protein concentration not given here; high values mean tight binding
row,Binder,binding signal
1,B1,0.904 enrichment R
2,B2,0.505 enrichment R
3,B3,0.706 enrichment R
4,B4,1.32 enrichment R
5,B5,0.376 enrichment R
6,B6,0.745 enrichment R
7,B7,0.37 enrichment R
8,B8,0.293 enrichment R
9,B9,0.491 enrichment R
10,B10,0.667 enrichment R
11,B11,0.915 enrichment R
12,B12,0.389 enrichment R
13,B13,1.39 enrichment R
14,B14,0.534 enrichment R
